Measurements taken from patent publication US11324742B2, “Treatment of demyelinating diseases” (Victoria Link Ltd., priority 2018, dated 2022).
Read-outs that look alike come from different tables or passages of the source.

Legend:
[1] = test system: experimental autoimmune encephalomyelitis (EAE) model of MS; assay: EAE model of MS, daily treatment from day 17 (disease score, total disability, weight); format: in vivo, female C57BL/6 mice
[2] = test system: experimental autoimmune encephalomyelitis (EAE) model of MS
[3] = test system: experimental autoimmune encephalomyelitis (EAE) model of MS; assay: EAE model of MS in male mice, treatment from disease onset; format: in vivo, male C57BL/6 mice; details: 0.01 mg/kg daily i.p. from onset
[4] = 0.01 mg/kg i.p. daily from onset (Example 31)
[5] = daily i.p. from onset, 0.003-0.1 mg/kg all significant

## CN(C(=O)/C=C/c1ccoc1)[C@@H]1CC[C@@]2(O)[C@H]3Cc4ccc(O)c5c4[C@@]2(CCN3CC2CC2)[C@H]1O5 [nalfurafine, (E)-N-[(4R,4aS,7R,7aR,12bS)-3-(cyclopropylmethyl)-4a,9-dihydroxy-1,2,4,5,6,7,7a,13-octahydro-4,12-methanobenzofuro[3,2-e]isoquinoline-7-yl]-3-(furan-3-yl)-N-methylprop-2-enamide]
[1]; 0.1 mg/kg daily i.p. from day 17, day 45
  reduction in disease (total disability): 60%
[1]; daily i.p. from day 17 (Example 1)
  dose showing the most rapid recovery: 0.1 mg/kg
[1]; daily i.p. from day 17, 0.1 and 0.03 mg/kg
  disease score (0-5), recovery from paralysis: complete
[1]; daily i.p. from day 17, 0.3, 0.1, 0.03 or 0.01 mg/kg, over 45 days
  disease score (0-5), recovery from paralysis: reduction of disease
[1]; daily i.p. from day 17, 0.3, 0.1 or 0.03 mg/kg
  % change in body weight: recover from EAE-induced weight loss
[1]; daily i.p. from day 17, 0.3, 0.1 or 0.03 mg/kg, by day 45
  total disability (AUC of daily disease score): significantly lower total disability
[1]; mice not sick at start of treatment (day 17), 0.3, 0.1 or 0.03 mg/kg i.p. daily
  onset of disease: did not alter the onset of disease
[1]; mice not sick at start of treatment (day 17), 0.3, 0.1 or 0.03 mg/kg i.p. daily, vs vehicle
  recovery from paralysis (disease score): rapid recovery from paralysis
[2]; 0.01 mg/kg i.p. daily from onset (Example 30)
  disease score, functional recovery: superior to clemastine fumarate
[2]; [4]
  number of days in recovery: sustained recovery
  percentage of mice recovered (score <0.5 by day 23): all of the mice recover
[2]; 0.01 mg/kg i.p. daily throughout the experimental course (longer duration)
  recovery (disease score): does enhance recovery effectively
[2]; 0.01 mg/kg i.p. for only four days from onset
  recovery (disease score): does not enhance recovery
[2]; 0.1 mg/kg daily i.p. from onset
  percentage of mice recovered (score ≤0.5 by day 23): 100%
[2]; EAE examples described herein, except short 4-day course
  disease score (full recovery from paralysis): < 0.5
[2]; daily i.p. from onset (Example 10)
  dose showing the most rapid recovery: 0.01 mg/kg
[2]; daily i.p. from onset (score ≥1), 0.3, 0.1, 0.03, 0.01 or 0.003 mg/kg
  disease score, recovery from paralysis: reduction of disease
[2]; [5]
  number of days in recovery: sustained functional recovery
  percentage of mice recovered (score ≤0.5 by day 23): full functional recovery
[2]; daily i.p. from onset, 0.01 and 0.03 mg/kg
  disease score, recovery from paralysis: complete
[2]; daily i.p. from onset, 0.3-0.003 mg/kg, vs vehicle
  peak disease score during first EAE episode: no difference in peak disease score
[2]; dose-response curve fitted from 0.1 mg/kg to vehicle, daily i.p. from onset
  EC50 for % recovery: < 0.001 mg/kg
[2]; i.p., effective dose shown in FIG. 10
  Mouse dose for EAE (effective dose): 3 µg/kg/day
[2]; nalfurafine 0.01 mg/kg i.p. daily in the presence of norBNI 10 mg/kg i.p. weekly
  disease score: effective at reducing disease
[3]
  disease score, recovery from paralysis: effective at enabling functional recovery from paralysis
  number of days in recovery: sustained functional recovery
  percentage of mice recovered (score ≤0.5 by day 23): promotes full recovery

## Oc1ccc2c3c1O[C@H]1c4[nH]c5c(c4C[C@@]4(O)[C@@H](C2)N(CC2CC2)CC[C@]314)C[C@@]1(O)[C@H]2Cc3ccc(O)c4c3[C@@]1(CCN2CC1CC1)[C@H]5O4 [norBNI]
[2]; norBNI 10 mg/kg i.p. weekly with nalfurafine 0.01 mg/kg i.p. daily (Example 23)
  effect on nalfurafine-mediated full recovery (score <0.5): abolishes the ability of nalfurafine to enable full recovery from paralysis
[2]; norBNI 10 mg/kg i.p. weekly with nalfurafine 0.01 mg/kg i.p. daily (Example 24)
  effect on nalfurafine-mediated % recovered and days in recovery: abolishes the ability of nalfurafine to enable and sustain recovery from paralysis
